{"source": "PubChem BioAssay AID624418", "about": "(National Center for Advancing Translational Sciences (NCATS), 2012)", "note": "The campaign covered roughly 410,000 compounds. About 530 (0.13%) were called active. Inconclusive means that the source gave no clear call. Such entries were picked first, then a sample of the others. Calls follow the shape of the dose curve; as a rule, active = well fitted inhibition curve with a large enough effect; inconclusive = small, poorly fitted or top-dose-only effect, or another doubt; inactive = no such curve, though single readings can be large or run the other way. A potency beside an inconclusive call is a rough fit, not a confirmed value. % is scaled to controls: 0 for no effect and ±100 for the full control effect; potency is read from the fitted curve at half-maximal effect."}
{"experiment": "qHTS of GLP-1 Receptor Inverse Agonists: Cytotox Screen", "conditions": "HEK293 cAMP-luciferase reporter cells, luminescence, 24 h; activity change, negative = inhibition: at 38.3 µM (top of the series) unless noted", "outline": "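Step one: seed cells (200 cells/uL, DMEM with 10% Nu serum, 1% pen-strep). Step two: 12-hour incubation at 37 deg C. Step three: pin 23 nL compound, incubate 24 hr. Step four: add luciferase reagent, read luminescence 12 min later.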"}
{"smiles": "CC(=O)c1cccc(NC(=O)c2cccc3c(-c4cccc(C(N)=O)c4)coc23)c1", "Potency": "inconclusive: 10 µM [inhibitor, single point]"}
{"smiles": "CCOc1ccc(Cn2nnc(C(=O)Nc3ccc(Cl)cc3)c2N)cc1", "activity change, negative = inhibition": "inactive: 3.35%"}
{"smiles": "Cc1ccc(C(=O)N2CCN(c3cccc(Cl)c3)CC2)cc1C", "Potency": "inconclusive: 6.31 µM [inhibitor, partial curve, poor fit]"}
{"smiles": "CO/N=C/C(C#N)c1ncc(C(F)(F)F)cc1Cl", "note": "(stereo not drawn)", "Potency": "inconclusive: 15.8 µM [inhibitor, single point]"}
{"smiles": "COc1cc(NC(=S)NCc2cccnc2)cc(OC)c1", "activity change, negative = inhibition": "inactive: -8.25%"}
{"smiles": "CSc1ncc(-c2ccc(Cl)cc2)[nH]1", "activity change, negative = inhibition": "inactive: 6.88%"}
{"smiles": "COc1cc(-c2noc(C)c2C(=O)NCCc2ccccc2)cc(OC)c1OC", "Potency": "inconclusive: 0.501 µM [inhibitor, full curve, poor fit]"}
{"smiles": "COc1ccccc1CNC(=O)c1c(-c2ccccc2Cl)noc1C", "activity change, negative = inhibition": "inactive: -21.8%"}
{"smiles": "Cc1ccc(C)c(-n2nnc(-c3nc(-c4ccccc4C)no3)c2C)c1", "activity change, negative = inhibition": "inactive: 1.61%"}
{"smiles": "C(=N\\NC1=Nc2cccc3cccc1c23)/c1ccccc1", "Potency": "inconclusive: 10 µM [inhibitor, single point]"}
{"smiles": "O=C1NC(=Nc2ccccc2)S/C1=C\\C=C\\c1ccco1", "Potency": "inconclusive: 10 µM [inhibitor, partial curve, poor fit]"}
{"smiles": "CC(=O)c1cccc(N(CC(=O)Nc2cccnc2)S(C)(=O)=O)c1", "Potency": "inconclusive: 0.501 µM [inhibitor, full curve, poor fit]"}
{"smiles": "COc1ccc2c(c1)[nH]c1c(=O)n(/N=C/C3C(C)C=C(C)CC3C)c(=O)[nH]c12", "note": "(stereo not drawn)", "Potency": "inconclusive: 3.98 µM [inhibitor, full curve]"}
{"smiles": "COc1cccc(NC(=O)c2cc3c(-c4ccc(Cl)cc4)nn(C)c3s2)c1", "activity change, negative = inhibition": "inactive: -16.4%"}
{"smiles": "Cc1cc(O)ccc1N/C=C/c1onc(C)c1[N+](=O)[O-]", "Potency": "inconclusive: 20 µM [inhibitor, single point]"}
{"smiles": "COc1ccc(CC(=O)OCC(=O)NCC2CCCO2)cc1OC", "note": "(stereo not drawn)", "Potency": "inconclusive: 12.6 µM [inhibitor, single point]"}
{"smiles": "O=C(CNC(=O)c1ccc2c(c1)OCO2)Nc1cccc(Br)c1", "activity change, negative = inhibition": "inactive: 2.83%"}
{"smiles": "O=C(CCCN1C(=O)c2cccc3cccc(c23)C1=O)N1CCN(c2ccccc2O)CC1", "Potency": "inconclusive: 31.6 µM [inhibitor, single point]"}
{"smiles": "CCOC(=O)C1=C(C)N(CC)C(=S)NC1c1ccc(Cl)cc1", "note": "(stereo not drawn)", "Potency": "inconclusive: 28.2 µM [inhibitor, single point]"}
{"smiles": "COc1cc(C(=O)Nc2ccc3c(c2)N(C(=O)CCN(C)C)c2ccccc2CC3)cc(OC)c1OC", "Potency": "inconclusive: 28.2 µM [inhibitor, single point]"}
{"smiles": "O=S(=O)(NCc1ccncc1)c1ccc(Br)s1", "activity change, negative = inhibition": "inactive: 6.52%"}
{"smiles": "COc1ccc(CNC(=O)c2cc3sccc3n2Cc2ccc(C)cc2)cc1", "activity change, negative = inhibition": "inactive: -1.8%"}
{"smiles": "CCC(=O)Nc1ccc(NC(=O)CN2CCCC(C)C2)c(Cl)c1", "note": "(stereo not drawn)", "Potency": "inconclusive: 28.2 µM [inhibitor, single point]"}
{"smiles": "Nc1nnnn1/N=C/C(Br)=C/c1ccccc1", "Potency": "inconclusive: 7.08 µM [inhibitor, partial curve, poor fit]"}
{"smiles": "O=C(/C=C/c1ccccc1)NC(NC(=S)Nc1cccc(Cl)c1)C(Cl)(Cl)Cl", "note": "(stereo not drawn)", "Potency": "inconclusive: 22.4 µM [inhibitor, single point]"}
{"smiles": "Cc1cc(C)c[n+](CC(=O)c2cc3ccccc3oc2=O)c1", "activity change, negative = inhibition": "inactive: 19.1%"}
{"smiles": "CCOC(=O)NC(=O)C(=CNc1cccc(C)c1)C(=O)NC(=O)OCC", "Potency": "inconclusive: 3.16 µM [inhibitor, full curve, poor fit]"}
{"smiles": "C=CCC[C@H](Cc1ccc(F)cc1)C(=O)OC[C@@H](C)NC(=O)[C@@H](CC=C)CC(=O)N[C@H](CO)Cc1ccccc1", "Potency": "inconclusive: 28.2 µM [inhibitor, single point]"}
{"smiles": "Cc1ccc2c(CNCc3ccc(C)o3)c(C(=O)O)n(Cc3ccc(F)cc3)c2c1", "Potency": "inconclusive: 31.6 µM [inhibitor, single point]"}
{"smiles": "CC(=O)/C=C/c1ccc2ccccc2n1", "Potency": "inconclusive: 28.2 µM [inhibitor, single point]"}
{"smiles": "CCOc1cc(/C=C2\\SC(=S)N(NS(=O)(=O)c3ccccc3)C2=O)ccc1O", "Potency": "inconclusive: 11.2 µM [inhibitor, single point]"}
{"smiles": "CCOc1ccc(NC(=O)Cn2c(=O)n(CCCS(=O)(=O)C3CCCCC3)c(=O)c3ccccc32)cc1", "activity change, negative = inhibition": "inactive: -4.86%"}
{"smiles": "COc1ccc2c(c1)c(/C=N/Nc1nc3ccccc3[nH]1)c(C)n2C", "Potency": "inconclusive: 11.2 µM [inhibitor, partial curve, poor fit]"}
{"smiles": "CC(=O)COc1ccc(-c2csnn2)cc1", "activity change, negative = inhibition": "inactive: -6.87%"}
{"smiles": "Cc1cccc(C(=O)N2CCC(=O)N([C@H](COCc3cccc(Cl)c3)Cc3ccccc3)CC2)c1", "Potency": "inconclusive: 28.2 µM [inhibitor, single point]"}
{"smiles": "Cc1ccc(COc2ccsc2C(=O)O)cc1", "Potency": "inconclusive: 28.2 µM [inhibitor, single point]"}
{"smiles": "O=C1CC(=C2c3ccccc3-c3ccccc32)C(=O)N1CCCCN1CCN(c2ccccc2)CC1", "activity change, negative = inhibition": "inactive: -6.09%"}
{"smiles": "CCOC(=O)C1(CCOc2ccccc2)CCN(Cc2ccc(OC)c(COC)c2)CC1", "Potency": "inconclusive: 20 µM [inhibitor, single point]"}
{"smiles": "CCOC(=O)c1c(C)[nH]c(N=Nc2ccc(C)cc2)c1C", "Potency": "inconclusive: 11.2 µM [inhibitor, single point]"}
{"smiles": "COc1ccc(CCNC(=O)Cn2c(=O)n(-c3cc(F)ccc3F)c(=O)c3sccc32)cc1OC", "Potency": "inconclusive: 35.5 µM [inhibitor, partial curve, poor fit]"}
{"smiles": "O=C1N/C(=C/c2ccc(N3CCOCC3)o2)C(=O)N1c1ccccc1", "Potency": "inconclusive: 28.2 µM [inhibitor, single point]"}
{"smiles": "Cc1ccc(C(=O)NNC(=O)c2ccncc2)cc1[N+](=O)[O-]", "Potency": "inconclusive: 6.31 µM [inhibitor, partial curve, poor fit]"}
{"smiles": "CCOc1cc(/C=N/Nc2nnc(C)n2N)ccc1O", "Potency": "inconclusive: 31.6 µM [inhibitor, partial curve, poor fit]"}
{"smiles": "NS(=O)(=O)c1ccc(NC(=S)NC2CCCCC2)cc1", "activity change, negative = inhibition": "inactive: 0.358%"}
{"smiles": "COc1ccc(C(=O)c2cnc3ccc(C)cc3c2S(=O)(=O)c2ccccc2)cc1", "Potency": "inconclusive: 3.16 µM [inhibitor, partial curve, poor fit]"}
{"smiles": "CCC(C)c1ccc(NC(=S)Nc2ccc(OC)cc2C)cc1", "note": "(stereo not drawn)", "Potency": "inconclusive: 14.1 µM [inhibitor, single point]"}
{"smiles": "COc1ccc(C(=O)NCCCc2nc3ccccc3n2Cc2ccccc2C)cc1OC", "Potency": "inconclusive: 5.62 µM [inhibitor, partial curve]"}
{"smiles": "COc1ccc(NC(=S)NC(=O)/C=C/c2cccs2)cc1", "Potency": "inconclusive: 28.2 µM [inhibitor, single point]"}
{"smiles": "CCN(CC)CCn1c2ccccc2c2cnc(N=CN(C)C)c(C#N)c21", "Potency": "inconclusive: 10 µM [inhibitor, partial curve, poor fit]"}
{"smiles": "CCc1ccc(C(=O)COC(=O)c2cc([N+](=O)[O-])ccc2N2CCOCC2)cc1", "Potency": "inconclusive: 12.6 µM [inhibitor, partial curve]"}
{"smiles": "Cc1ccc(NC(=O)c2cc(S(=O)(=O)NC3CCCCCC3)ccc2F)cc1F", "activity change, negative = inhibition": "inactive: -15.3%"}
{"smiles": "FC(F)Sc1ccc(N=C2NN=C(c3ccc4c(c3)OCCO4)CS2)cc1", "Potency": "inconclusive: 11.2 µM [inhibitor, single point]"}
{"smiles": "CCn1cc(CCCC(=O)NCc2cccc(OC)c2)c2ccccc21", "activity change, negative = inhibition": "inactive: -1.68%"}
{"smiles": "COc1ccc(C(=O)NCc2nnc(SCC(=O)Nc3nc4ccccc4s3)o2)cc1OC", "Potency": "inconclusive: 1.78 µM [inhibitor, partial curve, poor fit]"}
{"smiles": "C=C1C(=O)C=C[C@]2(C)C[C@@H]3OC(=O)[C@](C)(O)[C@H]3C[C@@H]12", "Potency": "inconclusive: 10 µM [inhibitor, partial curve, poor fit]"}
{"smiles": "CC(=O)C[C@@H](O)CC(=O)[C@@H]1OC(=O)CCCCCCCCc2ccccc21", "activity change, negative = inhibition": "inactive: 9.9%"}
{"smiles": "CCOC(=O)C1(Cc2ccccc2)CCN(Cc2cccc(OC)c2O)CC1", "activity change, negative = inhibition": "inactive: -0.405%"}
{"smiles": "Cc1cc([N+](=O)[O-])ccc1-c1ccc(C2Nc3ccccc3C(=O)N2O)o1", "note": "(stereo not drawn)", "Potency": "inconclusive: 7.08 µM [inhibitor, full curve, poor fit]"}
{"smiles": "CCN(CC)CCN(Cc1cc2cc3c(cc2[nH]c1=O)OCCO3)C(=S)NCC(C)C", "Potency": "inconclusive: 17.8 µM [inhibitor, single point]"}
{"smiles": "C#CCn1c(CCNC(=O)c2ccco2)nc2ccccc21", "Potency": "inconclusive: 28.2 µM [inhibitor, single point]"}
{"smiles": "CC/C(=N/NC(=O)c1ccc(Br)cc1)c1ccc(OCCN2CCOCC2)cc1", "Potency": "inconclusive: 14.1 µM [inhibitor, single point]"}
{"smiles": "Cc1ccc(NC(=O)NCCOCCn2c(=O)oc3ccccc32)c(C)c1", "activity change, negative = inhibition": "inactive: -0.898%"}
{"smiles": "CCn1c(NN)nc2sc3c(c2c1=O)CCC3", "Potency": "inconclusive: 8.91 µM [inhibitor, partial curve, poor fit]"}
{"smiles": "Cc1cccc(C)c1NC(=O)NCCCN1CCN(c2ccccc2)CC1", "Potency": "inactive"}
{"smiles": "O=C(COc1ccccc1Cl)N1CCN(c2ccc([N+](=O)[O-])c(N3CCCCC3)c2)CC1", "Potency": "inconclusive: 17.8 µM [inhibitor, partial curve, poor fit]"}
{"smiles": "Cc1oc(-c2ccc(Cl)cc2)cc1C(=O)O", "activity change, negative = inhibition": "inactive: 2.93%"}
{"smiles": "Cn1ccnc1C(=O)c1ccc(Cl)c(S(=O)(=O)N2CCOCC2)c1", "Potency": "inconclusive: 28.2 µM [inhibitor, single point]"}
{"smiles": "Cc1ccc(CNC(=O)c2ccc3c(c2)NC(=O)C(CS(=O)(=O)Cc2ccc(F)cc2)N3)cc1", "note": "(stereo not drawn)", "activity change, negative = inhibition": "inactive: 2.52%"}
